B1: LINE1-full (parent)
chain: UACGUAGGUGGUUUUCCCCUGAUAGUGCUAAGGGGGCCUGGAAGUUUGGACUGGGCAGAGCUCAACACAGCGUGGCAAAGUGGCUGUGGCUAGACUGCCUCUCUGGAUUCCUCGUCACUCAGCAGGGCAUCUCUGAGAGAAAUGCC

Read counts are not given, so values of variants with three or more changes are uncertain.

The data set covers variants of B1. Kind of data set: self-cleavage, relative activity (ratio to wild type); higher = more cleavage; in vitro, sequencing; the parent is a self-cleaving ribozyme.
Turning to UACGUAGGUGGUUUUCCCCUGAUAGUGCUGAGGGGGCCUGGAAGUUUGGACAGGGCAGAGCUCAACACAGCGAGGCAAAGUGGCAGUGGCUAGACUGCCUAUCUGGAUUCCUCGUCACUCAGCAGGGCAUCUCUGAGAGAAAUGCC [A30G U52A U73A U85A C101A], the self-cleavage was 0.21.
To UACGUAGGUGGUUUUCCCCUGAUAGUGCUUAGGGGGCCUGGAAGUUUGGACUGGGCAGAGCUCAACUCAGCGUGGCAAAGUGGCUGUGGCUAGACUGCCUCUCUGGAUUCCUCGCCACUCAGCAGGGCAUCUCUGAGAGAAAUGCC [A30U A67U U115C] belongs 0.18; to UACGUAGGUGGUUUUCCCCUGAUAGUGCUUGGGGGGCCUGGAAGUUUGGACUGGGCAGAGCUCAACACGGCGUGGCUAAGUGGCUGUGGCUAGACUGCCUCUCAGGAUUCCUCGUCACUCAGCAGGGCAUCUCUGAGAGAAUUGCC [A30U A31G A69G A77U U104A A142U], 0.17.
To UACGUAGGUGGUUUUCCCCUGAUAGUGCUUAGGGGGCCUGGAAGUUUGGACUGGGCAGAGCUCAACACUGCGUGGCAAAGUGGCUGUGGCUAGACUGCCUCUCUGGACUCCUCGUCACUCGGCAGGGCAUCUAUGAGAGAAACGCC [A30U A69U U108C A121G C133A U143C] belongs 0.1; to UACGUAGGUGGUUUUCCCCUGAUAGUGCUUAGGGGGCCUGGAAGUUUGGACUGGGCAGAGCUCUACACAGCGUGGCAAAGUGGCUGUGGCUAGACUGCCUCUCUGGAUUCCUCGUCACUCAGCAGGGCAUCCCUGAGAGAAAUGCC [A30U A64U U132C], 0.38.
UACGUAGGUGGUUUUCCCCUGAUAGUGCUUAGGGGGCCUGGGAGUUUGGACUGGGCAGAGCUCAGCACAGCGUGGCAAAGUGGCUGUGGCUAGACUGCCUCUCUGGAUUCCUCGUCACUCAGCAGGGCAUCUCUGAGAGAAAUGCC [A30U A42G A65G]: the self-cleavage turned out to be 0.
With UACGUAGGUGGUUUUCCCCUGAUAGUGCUGAGGGGGCCUGGAAGUUUGGACUGGGCAGAGCUCAACACAGCGUGGCAAAGUGGCUGUGGCUAGACUGCCUCUCAGGAUUCCUCGUCACUCAGCUGGGCAUCUCUGAGAGAAAUGCC [A30G U104A A124U], the self-cleavage turned out to be 1.41.
The figure for UACGUAGGUGGUUUUCCCCUGAUAGUGCUGAGGGGGCCUGGAAGUUUGGACUGGGCAGAGCUCAACACAGCGAGGCAAAGUGGCUGUGGCUAGACUGCCUCGCUGGAUUCCUCGUCACUCAGCAGGGCAUCUCUGAGAGAAAUGCC [A30G U73A U102G] is 0.15.
For the variant UACGUAGGUGGUUUUCCCCUGAUAGUGCUGAGGGGGCCUGGAAGUCUGGACUGGGCAGAGCUCAACACAGCGUGGCAAAGUGGCUGUGGCUAGACUGCCUCUCAGGAUUCCUCGUCGCUCAGCAGGGCAUCUCUGAGAGAAAUGCC [A30G U46C U104A A117G], the self-cleavage was determined as 0.
To UACGUAGGUGGUUUUCCCCUGAUAGUGCUUAGGGGGCCUGGAAGUUUGGACUGGGCAGAGCUCAACACAGCGUGGCAAAGUGGCUGUGGCUAGACUGCCUCUCUGGAUUCCUCGUCACUCAGCAGGGCAUCUCUGGGGGAAACGCC [A30U A136G A138G U143C] belongs 1.97; to UACGUAGGUGGUUUUCCCCUGAUAGUGCUUAGGGGGCCUGGAAGUUUGGACUGGGCAGAGCUCAACACAGCGUGGCAAGGUGGCUGUGGCUAGACUGCCUCUCUGGAUUCCUCGUCACUCAGCAGGGCAUCCCUGAGAGAAAUGCC [A30U A79G U132C], 1.45; to UACGUAGGUGGUUUUCCCCUGAUAGUGCUUAGGGGGCCUGGAGGUUUGGACUGUGCAGAGCUCAACACAGCGUGGCAAGGUGGCUGUGGCUAGACUGCCUCUCUGGAUUCCUCGUCACUCAGCAGGGCAUCUCUGGGAGAAAUGCC [A30U A43G G54U A79G A136G], 0.78.
In the case of UACGUAGGUGGUUUUCCCCUGAUAGUGCUGAGGGGGCCUGGAAGUUCGGACAGGGCAGAGCUCAACACAGCGUGGCAAAGUGGCUGUGGCUAGACUGCCUCUCUGGAUUCCUCGUCACUCAGCAGGGCAUCUCUGAGAGAAAUGCC [A30G U47C U52A], the self-cleavage was found to be 2.43.
For UACGUAGGUGGUUUUCCCCUGAUAGUGCUUAGGGGGCCUGGAAGUUUGGAUUGGGCAGAGCUCAACACAGCGUGGCGAAGUGGCUGUGGCUAGACUGCCUCUCUGGAUUCCUCGUCACUCAGCAGGGCAUCUCUGAGAGAAAUGCC [A30U C51U A77G], the self-cleavage worked out at 1.31.
Consider UACGUAGGUGGUUUUCCCCUGAUAGUGCUUAGGGGGCCUGGUAGUUUGGACUGGGCAGAGCUCAGCACAGCGUGGCAAAGUGGCUGUGGCUAGACUGCCUCUCUGGAUUCCUCGUCACUCAGCAGGGCAUCUCUGAGAGAAAUGCC [A30U A42U A65G], for which the self-cleavage worked out at 0.
With UACGUAGGUGGUUUUCCCCUGAUAGUGCUUAGGGGGCCUGGAAGUUUGGACUGGGCAGAGCUCAGCACAGCGUGGCAAAGUGGCUGUGGCUAGACUGCCUCUCUGGAUUCCUCGUCACUCAGCAGGGCACCUCUGAGAGAAGUGCC [A30U A65G U130C A142G], the self-cleavage is 0.25.
Consider UACGUAGGUGGUUUUCCCCUGAUAGUGCUUUGGGGGCCUGGAAGUUAGGACUCGGCAGAGCUCAACACAGCGUGGCAGAGUGGCUGUGGCUAGACUGCCUCUCUGGAUUCCUCGGCACUCAGCAGGGCAUCUCUGAGAGGAAUGCC [A30U A31U U47A G53C A78G U115G A140G], for which the self-cleavage is 0.
The figure for UACGUAGGUGGUUUUCCCCUGAUAGUGCUGAGGGGGCCUGGAAGUUCGGACUGGGCAGAGCUCUACACAGCGUGGCAAAGUGGCUGUGGCUAGACAGCCUCUCUGGAUUCCUCGUCACUCAGCAGGGCAUCUCUGAGAGAAAUGCC [A30G U47C A64U U96A] is 0.15; for UACGUAGGUGGUUUUCCCCUGAUAGUGCUUAGGGGGCCUGGAAGUUUGGACUGGGCAGAGCUCAACACAGCGUGGCAAAGUGGCUGUGGCUAGACUGCCUCUCUGGAUUCCUCGUCACUCAGCAGGGCAUCUCUGAGAGAAGUGUC [A30U A142G C145U] it is 0.72.

The record behind these values is the RNAGym collection of RNA variant scans (doi:10.7554/elife.90254).
